B1: Caulobacter ParB omega fusion; a variant is named by its letters at X, in order, B8GW30 (parent)
chain: MESVVVGEPGMSEGRRGLGRGLSALLGEVDAAPAQAPGEQLGGSREAPIEILQRNPDQPRRTFREEDLEDLSNSIREKGVLQPILVRPSPDTAGEYQIVAGERAWRAAQRAGLKTVPIMVRELDDLAVLEIGIIENVQRADLNVLEEALSYKVLMEKFERTQENIAQTIGKSXSHVANXMRLLXLPDEVQSYLVSGELTAXHARAIAAAADPVALAKQIIEGGLSVRETEALARKAPNLSAGKSKGGRPPRVKDTDTQALESDLSSVLGLDVSIDHRGSTGTLTITYATLEQLDDLCNRLTRGI

Whole data set: some 81,000 sequences, median “one-hybrid fitness for binding parS DNA” near -0.17, cut for the highest 2% near 0.51. This is one part of the list.

Results on 153 variants are retold here after a collection of fitness landscapes (doi:10.1016/j.celrep.2020.107928).

Variants of B1 are the subject of this assay. The assay can be described thus: one-hybrid fitness for binding parS DNA (scaled: cognate 1, non-cognate 0); higher = stronger binding. Conditions: with parS DNA site. In a few lines:
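Caulobacter ParB libraries with four specificity codons randomised were screened by bacterial one-hybrid selection in the E. coli USO strain, using a HIS3 reporter whose site lies 19 bp from the promoter. Selection ran for 48 hours at 37°C on M9 lacking histidine, with 0.1 mM IPTG and 5 mM 3-AT. Plasmids were Illumina-sequenced before and after selection, three replicate libraries were pooled, and variants with under 10 reads were dropped. Fitness is the log change in each variant's read ratio to wild type, rescaled against the cognate and non-cognate sites.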
Regarding CRAR, the “one-hybrid fitness for binding parS DNA” value is at most 0.2.

For the variant VNMD, the “one-hybrid fitness for binding parS DNA” value is at most 0.2.

Consider PKPT, for which the “one-hybrid fitness for binding parS DNA” value was at most 0.2.

On to WPNA, for which the “one-hybrid fitness for binding parS DNA” value was at most 0.2.

Take PRFT: the “one-hybrid fitness for binding parS DNA” value was at most 0.2.

Regarding PPTH, the “one-hybrid fitness for binding parS DNA” value is at most 0.2.

As for ACPQ, the “one-hybrid fitness for binding parS DNA” value was at most 0.2.

With RVRK, the “one-hybrid fitness for binding parS DNA” value was at most 0.2.

As for PHNV, the “one-hybrid fitness for binding parS DNA” value is at most 0.2.

As for AWKC, the “one-hybrid fitness for binding parS DNA” value is at most 0.2.

For the variant VTNN, the “one-hybrid fitness for binding parS DNA” value is at most 0.2.

YGQC: the “one-hybrid fitness for binding parS DNA” value is at most 0.2.

Regarding WQQG, the “one-hybrid fitness for binding parS DNA” value was at most 0.2.

With RWGK, the “one-hybrid fitness for binding parS DNA” value was at most 0.2.

On to STMS, for which the “one-hybrid fitness for binding parS DNA” value was at most 0.2.

Turning to AIVA, the “one-hybrid fitness for binding parS DNA” value was at most 0.2.

For KHFG, the “one-hybrid fitness for binding parS DNA” value is at most 0.2.

Take TNLL: the “one-hybrid fitness for binding parS DNA” value was at most 0.2.

For KCRI, the “one-hybrid fitness for binding parS DNA” value is at most 0.2.

As for QPRV, the “one-hybrid fitness for binding parS DNA” value is at most 0.2.

CSST: the “one-hybrid fitness for binding parS DNA” value is at most 0.2.

As for NCIT, the “one-hybrid fitness for binding parS DNA” value is at most 0.2.

For PSAL, the “one-hybrid fitness for binding parS DNA” value was at most 0.2.

Regarding GFAS, the “one-hybrid fitness for binding parS DNA” value is at most 0.2.

Consider PFWL, for which the “one-hybrid fitness for binding parS DNA” value was at most 0.2.

As for PRAD, the “one-hybrid fitness for binding parS DNA” value is at most 0.2.

YAVM: the “one-hybrid fitness for binding parS DNA” value is at most 0.2.

In the case of IARM, the “one-hybrid fitness for binding parS DNA” value is at most 0.2.

In the case of RRCV, the “one-hybrid fitness for binding parS DNA” value is at most 0.2.

For the variant LYRR, the “one-hybrid fitness for binding parS DNA” value is at most 0.2.

As to HKES, the “one-hybrid fitness for binding parS DNA” value was at most 0.2.

In the case of CRCE, the “one-hybrid fitness for binding parS DNA” value is at most 0.2.

Turning to QCAW, the “one-hybrid fitness for binding parS DNA” value is at most 0.2.

For YTRM, the “one-hybrid fitness for binding parS DNA” value was at most 0.2.

For IVSV, the “one-hybrid fitness for binding parS DNA” value was at most 0.2.

For HELC, the “one-hybrid fitness for binding parS DNA” value is at most 0.2.

For the variant GQII, the “one-hybrid fitness for binding parS DNA” value was at most 0.2.

Turning to FVTE, the “one-hybrid fitness for binding parS DNA” value was at most 0.2.

LQMW: the “one-hybrid fitness for binding parS DNA” value is at most 0.2.

Consider VKHL, for which the “one-hybrid fitness for binding parS DNA” value is at most 0.2.

With PVYR, the “one-hybrid fitness for binding parS DNA” value was at most 0.2.

As for VLCL, the “one-hybrid fitness for binding parS DNA” value was at most 0.2.

For GMST, the “one-hybrid fitness for binding parS DNA” value was at most 0.2.

Regarding FGAV, the “one-hybrid fitness for binding parS DNA” value is at most 0.2.

In the case of ANLV, the “one-hybrid fitness for binding parS DNA” value was at most 0.2.

For PVRC, the “one-hybrid fitness for binding parS DNA” value was at most 0.2.

On to TWVY, for which the “one-hybrid fitness for binding parS DNA” value was at most 0.2.

Regarding HVVR, the “one-hybrid fitness for binding parS DNA” value was at most 0.2.

Take AAYW: the “one-hybrid fitness for binding parS DNA” value was at most 0.2.

On to YTSK, for which the “one-hybrid fitness for binding parS DNA” value is at most 0.2.

THKS: the “one-hybrid fitness for binding parS DNA” value is at most 0.2.

Consider RFWW, for which the “one-hybrid fitness for binding parS DNA” value was at most 0.2.

Turning to RKRM, the “one-hybrid fitness for binding parS DNA” value came out at 0.281.

Turning to TPWS, the “one-hybrid fitness for binding parS DNA” value was at most 0.2.

For FDYL, the “one-hybrid fitness for binding parS DNA” value is at most 0.2.

ERIL: the “one-hybrid fitness for binding parS DNA” value is at most 0.2.

For IALL, the “one-hybrid fitness for binding parS DNA” value was at most 0.2.

Regarding SIKC, the “one-hybrid fitness for binding parS DNA” value was at most 0.2.

As to DTLW, the “one-hybrid fitness for binding parS DNA” value is at most 0.2.

For GQTG, the “one-hybrid fitness for binding parS DNA” value was at most 0.2.

With MCLK, the “one-hybrid fitness for binding parS DNA” value was 0.238.

As for VVHY, the “one-hybrid fitness for binding parS DNA” value was at most 0.2.

Consider AGKL, for which the “one-hybrid fitness for binding parS DNA” value is at most 0.2.

On to ENTS, for which the “one-hybrid fitness for binding parS DNA” value is at most 0.2.

On to FDMR, for which the “one-hybrid fitness for binding parS DNA” value was at most 0.2.

Consider PYWD, for which the “one-hybrid fitness for binding parS DNA” value is at most 0.2.

In the case of ATAE, the “one-hybrid fitness for binding parS DNA” value is at most 0.2.

Take VQHT: the “one-hybrid fitness for binding parS DNA” value is at most 0.2.

On to RFSQ, for which the “one-hybrid fitness for binding parS DNA” value was at most 0.2.

Turning to TYFG, the “one-hybrid fitness for binding parS DNA” value is at most 0.2.

On to PVWC, for which the “one-hybrid fitness for binding parS DNA” value was at most 0.2.

In the case of YHPW, the “one-hybrid fitness for binding parS DNA” value is at most 0.2.

Regarding GSHV, the “one-hybrid fitness for binding parS DNA” value was at most 0.2.

On to CDLV, for which the “one-hybrid fitness for binding parS DNA” value was at most 0.2.

Consider CRPC, for which the “one-hybrid fitness for binding parS DNA” value is at most 0.2.

As to IFTI, the “one-hybrid fitness for binding parS DNA” value is at most 0.2.

For the variant SFDR, the “one-hybrid fitness for binding parS DNA” value was at most 0.2.

Turning to MQDV, the “one-hybrid fitness for binding parS DNA” value is at most 0.2.

In the case of KHIR, the “one-hybrid fitness for binding parS DNA” value is at most 0.2.

As for KEAT, the “one-hybrid fitness for binding parS DNA” value is at most 0.2.

Consider GSEF, for which the “one-hybrid fitness for binding parS DNA” value was at most 0.2.

SPRR: the “one-hybrid fitness for binding parS DNA” value was at most 0.2.

Turning to MWGP, the “one-hybrid fitness for binding parS DNA” value is at most 0.2.

As for LACW, the “one-hybrid fitness for binding parS DNA” value is at most 0.2.

Consider RKPT, for which the “one-hybrid fitness for binding parS DNA” value is 0.412.

For the variant RHLQ, the “one-hybrid fitness for binding parS DNA” value is at most 0.2.

As for MPWS, the “one-hybrid fitness for binding parS DNA” value was at most 0.2.

Consider CPGE, for which the “one-hybrid fitness for binding parS DNA” value was at most 0.2.

With ATTA, the “one-hybrid fitness for binding parS DNA” value is at most 0.2.

Regarding SAMW, the “one-hybrid fitness for binding parS DNA” value was at most 0.2.

In the case of HMDR, the “one-hybrid fitness for binding parS DNA” value is at most 0.2.

As to HHPG, the “one-hybrid fitness for binding parS DNA” value was at most 0.2.

As to PQLV, the “one-hybrid fitness for binding parS DNA” value was at most 0.2.

As to IAWR, the “one-hybrid fitness for binding parS DNA” value is at most 0.2.

Consider DAYL, for which the “one-hybrid fitness for binding parS DNA” value was at most 0.2.

As for DAPR, the “one-hybrid fitness for binding parS DNA” value is at most 0.2.

Regarding RCER, the “one-hybrid fitness for binding parS DNA” value is at most 0.2.

On to GKTL, for which the “one-hybrid fitness for binding parS DNA” value was at most 0.2.

GGIR: the “one-hybrid fitness for binding parS DNA” value is at most 0.2.

Regarding ASQA, the “one-hybrid fitness for binding parS DNA” value is at most 0.2.

For the variant SPLT, the “one-hybrid fitness for binding parS DNA” value was at most 0.2.

For the variant EIEG, the “one-hybrid fitness for binding parS DNA” value is at most 0.2.

For TSSG, the “one-hybrid fitness for binding parS DNA” value is at most 0.2.

Consider PSMK, for which the “one-hybrid fitness for binding parS DNA” value was at most 0.2.

Regarding PDPI, the “one-hybrid fitness for binding parS DNA” value was at most 0.2.

Regarding VRRA, the “one-hybrid fitness for binding parS DNA” value was at most 0.2.

Consider RCDK, for which the “one-hybrid fitness for binding parS DNA” value was at most 0.2.

For LADL, the “one-hybrid fitness for binding parS DNA” value is at most 0.2.

For the variant EVQA, the “one-hybrid fitness for binding parS DNA” value is at most 0.2.

Regarding PCCT, the “one-hybrid fitness for binding parS DNA” value was at most 0.2.

Take RGSF: the “one-hybrid fitness for binding parS DNA” value was at most 0.2.

In the case of TIGL, the “one-hybrid fitness for binding parS DNA” value was at most 0.2.

DPTL: the “one-hybrid fitness for binding parS DNA” value is at most 0.2.

With ARFV, the “one-hybrid fitness for binding parS DNA” value is at most 0.2.

For GVAG, the “one-hybrid fitness for binding parS DNA” value is at most 0.2.

For the variant KHHW, the “one-hybrid fitness for binding parS DNA” value was at most 0.2.

On to GWLC, for which the “one-hybrid fitness for binding parS DNA” value is at most 0.2.

As for GCDA, the “one-hybrid fitness for binding parS DNA” value is at most 0.2.

SELG: the “one-hybrid fitness for binding parS DNA” value is at most 0.2.

For the variant CNLL, the “one-hybrid fitness for binding parS DNA” value is at most 0.2.

In the case of YGYR, the “one-hybrid fitness for binding parS DNA” value is at most 0.2.

Turning to PTDL, the “one-hybrid fitness for binding parS DNA” value is at most 0.2.

In the case of LCAS, the “one-hybrid fitness for binding parS DNA” value is at most 0.2.

Take SQGI: the “one-hybrid fitness for binding parS DNA” value is at most 0.2.

Consider WHPR, for which the “one-hybrid fitness for binding parS DNA” value was at most 0.2.

In the case of SDSR, the “one-hybrid fitness for binding parS DNA” value was at most 0.2.

Regarding LSVR, the “one-hybrid fitness for binding parS DNA” value is at most 0.2.

Take DYRT: the “one-hybrid fitness for binding parS DNA” value was at most 0.2.

For KRDI, the “one-hybrid fitness for binding parS DNA” value is at most 0.2.

On to VVNT, for which the “one-hybrid fitness for binding parS DNA” value was at most 0.2.

For the variant NMYK, the “one-hybrid fitness for binding parS DNA” value was at most 0.2.

Take THYM: the “one-hybrid fitness for binding parS DNA” value was at most 0.2.

Take AHME: the “one-hybrid fitness for binding parS DNA” value was at most 0.2.

Consider PKCS, for which the “one-hybrid fitness for binding parS DNA” value is at most 0.2.

DPPK: the “one-hybrid fitness for binding parS DNA” value was at most 0.2.

For the variant RQWT, the “one-hybrid fitness for binding parS DNA” value was determined as 0.702.

Turning to KLQI, the “one-hybrid fitness for binding parS DNA” value was at most 0.2.

With ALNR, the “one-hybrid fitness for binding parS DNA” value was at most 0.2.

For the variant GAFF, the “one-hybrid fitness for binding parS DNA” value is at most 0.2.

For TETE, the “one-hybrid fitness for binding parS DNA” value is at most 0.2.

TSSQ: the “one-hybrid fitness for binding parS DNA” value was at most 0.2.

As to CFAS, the “one-hybrid fitness for binding parS DNA” value was at most 0.2.

In the case of NYWG, the “one-hybrid fitness for binding parS DNA” value is at most 0.2.

For RTDA, the “one-hybrid fitness for binding parS DNA” value stood at 0.554.

Turning to SKAY, the “one-hybrid fitness for binding parS DNA” value is at most 0.2.

As for SLHA, the “one-hybrid fitness for binding parS DNA” value was at most 0.2.

Regarding VHHD, the “one-hybrid fitness for binding parS DNA” value is at most 0.2.

Turning to RKHT, the “one-hybrid fitness for binding parS DNA” value was found to be 0.756.

For the variant ACRS, the “one-hybrid fitness for binding parS DNA” value is at most 0.2.

Turning to KTWP, the “one-hybrid fitness for binding parS DNA” value is at most 0.2.

As to RLMP, the “one-hybrid fitness for binding parS DNA” value worked out at 0.229.

As for TMLV, the “one-hybrid fitness for binding parS DNA” value was at most 0.2.

On to DINP, for which the “one-hybrid fitness for binding parS DNA” value is at most 0.2.
